PubChem BioAssay AID1508623 (National Center for Advancing Translational Sciences (NCATS), 2021)
About 450 (0.94%) of roughly 48,000 compounds were called active. Another 19% or so got no clear call; they are omitted. Calls come from the whole dose curve; as a rule, active = well fitted inhibition curve with a large enough effect; inconclusive = small, poorly fitted or top-dose-only effect; inactive = no such curve, though single readings can be large or run the other way. The list shows a part of the results.

Test: Primary qHTS for Identification of Small Molecule Inhibitors of Huntingtin Promoter Activity; note: nearly all actives have a fitted effect of over 50% in size
Conditions: HEK293 HTT promoter firefly luciferase reporter (activity 0% = vehicle and -100% = no light), 24 h; series mostly up to 57.5 µM; activity change, negative = inhibition: at the top concentration
Outline: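 HEK293 Fluc reporter, 2,500 cells/well, 24 h pre-culture; cpds up to 57.5 uM final, 24 h 37 degrees C; Dual-Glo, 10 min RT; normalized vehicle = 0%, zero RLU = -100%.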

Activity change, negative = inhibition, inactive:
COc1ccc(NC(=O)CNC(=O)Cn2ccc3ccccc3c2=O)cc1OC -8.72%, Cc1cccc(N2CCN(CCCNc3ncnc4onc(-c5ccc(F)cc5)c34)CC2C)c1 (stereo unspecified) -25.3%, CN1CCN(c2cc3c(nn2)Oc2ccccc2N3C)CC1 6.65% [at 25.2 µM], CCCCc1ccc(NS(=O)(=O)c2ccc(C)c(C(=O)N3CCN(c4cccc(C)c4C)CC3)c2)cc1 -6.33%, O=C(CCNS(=O)(=O)c1ccc2c(c1)CCN2C(=O)C1CC1)Nc1ccc(OC(F)(F)F)cc1 -40.3%, CCc1ccc2oc(-c3cc(NC(=O)c4cccs4)ccc3Cl)nc2c1 -9.77%, CCC(C)NC(=O)Cn1ccc2cc(S(=O)(=O)N3CCCCCC3)ccc21 (stereo unspecified) -29.7%, COc1cccc2cc(C(=O)Nc3ccc(C)cc3)c(=O)oc12 77.8%, Cc1ccc(CCNC(=O)c2ccc3c(c2)N(Cc2cccc(F)c2)C(=O)c2ccccc2S3)cc1 -7.07%, Cc1ccc2c(=O)cc(C(=O)Nc3sc4c(c3C(=O)NCc3cccnc3)CCCC4)oc2c1 -8.16% [at 11.5 µM], CCOC(=O)c1ccc(NC(=O)C2=C(C)C(=O)OC23CCN(C(C)C)CC3)cc1 -31%, Cc1ccc(CN(C(=O)COc2ccc(F)cc2)C2CCS(=O)(=O)C2)o1 (stereo unspecified) -13.2%, CCn1cc(S(=O)(=O)c2ccccc2)c(=O)c2cc(F)c(F)cc21 -15%, CC(C)CCNC(=O)c1ccc2nc(Cc3ccccc3)oc2c1 -11.9%, CCOc1ccc(N(CC)C(=O)Cn2cnc3sc(C)c(S(=O)(=O)N4CCN(c5ncccn5)CC4)c3c2=O)cc1 -0.251%, COc1ccc(-c2cc(C(F)(F)F)nc(SCC(=O)NC(C)c3ccccc3)n2)cc1 (stereo unspecified) -18.3%, COC(=O)CN1C(C(=O)c2ccccc2)=C(OC(=O)c2ccccc2)c2ccccc2S1(=O)=O -10.9%, Cc1ccc(NC(=O)CCCn2nc(C)c3c(C)n(-c4ccccc4)nc3c2=O)c(Cl)c1 5.34%, Cc1ccc(NC(=O)C2CCCN(S(=O)(=O)c3cccs3)C2)c(C)c1 (stereo unspecified) -17.7%, COc1ccc(S(=O)(=O)N(CC(=O)Nc2ccc(Br)cc2)Cc2ccccc2)cc1 -26.7%, CCOC(=O)c1cc(NC(=O)c2ccc(F)cc2)c(=O)n2c1oc1ccc(Cl)cc12 0.346%, Cc1cc(O)c(CN2CCN(c3ccccc3)CC2)c2oc(=O)cc(C)c12 2.98%, Cc1nc(-c2ccc(S(=O)(=O)NCc3ccccc3Cl)cc2)co1 -21.5%, CCCn1c2ccccc2c2cnn(CC(=O)N3CCCC(C(=O)OCC)C3)c(=O)c21 (stereo unspecified) -20.2%, Cc1ccc(C(=O)Nc2cnc3ccccn3c2=O)cc1 62.7%, CCN1CCN(C(=O)Cn2ncc3c4ccccc4n(Cc4c(C)cc(C)cc4C)c3c2=O)CC1 -13.5%, CCc1ccc(NC(=O)CSc2nnc(CC)c(CC)n2)cc1 -8.08%, Cc1ccc(Cn2c(CN3CCC(C(=O)O)CC3)cc3ccccc32)cc1 -20.8%, COc1ccc(C(=O)Nc2nc3c(s2)Cc2c(Br)ccc(OC)c2-3)cc1OC -24.4%, Cc1cc(C)cc(N(CC(=O)Nc2c(C)cc(C)cc2C)S(=O)(=O)c2c(C)nn(C)c2C)c1 -25.7%, CCN(CC)CCCNC(=O)c1sc2nc3n(c(=O)c2c1C)CCCCC3 -4.83%, CN(CC(=O)Nc1ccc(F)cc1F)S(=O)(=O)c1cccc2nsnc12 -15.1%, CCOc1cc(-c2nnc(SCC(=O)NC3CCCCC3)nc2-c2ccc(OC)c(OCC)c2)ccc1OC -8.07%, CCOc1ccccc1NC(=O)CCS(=O)(=O)c1ccc2c(c1)oc(=O)n2C -16.4% [at 11.5 µM], CC(C)NC(=O)C1CCCN(c2ncnc3onc(-c4ccc(F)cc4)c23)C1 (stereo unspecified) -13.8%, COc1ccc2oc(-c3cccc(NC(=O)c4cc([N+](=O)[O-])ccc4N4CCOCC4)c3)nc2c1 0.877%, CCOC(=O)C(C)Sc1nnc2cc(C)c3ccccc3n12 (stereo unspecified) 5.9%, COc1cc(C2c3c(-c4c(C)cc(C)cc4O)n[nH]c3C(=O)N2Cc2ccco2)cc(OC)c1OC (stereo unspecified) -33%, Cc1ccc(-n2ncc3c(NCCCN(C)C)ncnc32)cc1Cl -4.51%, O=C(Cn1ncc2c3ccccc3n(Cc3ccccc3)c2c1=O)NCc1ccccn1 14.7%, COc1ccc(Nc2ncc3c(n2)CCN(Cc2sccc2C)C3)c(OC)c1 -7.38%, O=[N+]([O-])c1ccc(S(=O)(=O)N2CCn3cccc3C2c2ccc(Br)cc2)cc1 (stereo unspecified) -1.35%, COc1ccc(C(CNC(=O)c2oc3cc(Br)ccc3c2C)N2CCCCC2)cc1 (stereo unspecified) -5.18%, CCOC(=O)CN1C(=O)N(c2ccc(C)c(C)c2)S(=O)(=O)c2ccccc21 -23.3%, COc1ccc(NC(=O)CC2C(=O)N(c3ccccc3)C(=O)N2CCc2sccc2C)cc1 (stereo unspecified) -29.4%, CCOc1ccc(CNC(=O)C2CCCN(c3nn4cc(-c5ccc(OC)cc5)nc4s3)C2)cc1 (stereo unspecified) 0.95%, CC(C)CCNc1nc2c(-c3ccccc3)nnn2c2ccccc12 -10.2%, Cc1ccc(C(=O)CSc2nc3cc(C(=O)NC4CCCC4)ccc3c(=O)n2CC2CCCO2)c(C)c1 (stereo unspecified) 0.989%, Oc1ccc(OCc2ccccc2)cc1, COc1cccc(-c2cc(C(=O)Nc3cnn(Cc4ccc(Cl)cc4Cl)c3)no2)c1 -28.8%, COc1cccc(NC(=O)c2oc3ccccc3c2NC(=O)c2ccccc2C)c1 -20.7%, O=C(CC1N=C2c3ccccc3N=C(SCc3cccc(F)c3)N2C1=O)NCc1cccs1 (stereo unspecified) -28.3%, COC(=O)c1ccccc1NC(=O)CSc1n[nH]c(CC(C)C)n1 -22%, Cc1ccc(CNC(=O)CCNS(=O)(=O)c2ccc3c(c2)CCCC(=O)N3)cc1 -25.6%, CCCCN(CCCC)CCCNC(=O)c1ccc2nc(N3CCCCC3)sc2c1 -23.1%, COc1ccc(-c2nnn3c2nc(NCCc2ccc(OC)c(OC)c2)c2ccccc23)cc1 -10.3%, COc1ccc2c(c1)c1c(c(=O)n(-c3cc(Cl)ccc3C)c(=O)n1CC(=O)N1CCCC1)n2C -8.63%, COc1ccc(OC)c(Nc2nc3ccccc3nc2-n2nc(C)cc2C)c1 2.15%, Cc1ccccc1NC(=O)c1c(NC(=O)c2ccccc2F)sc2c1CCC(C)C2 (stereo unspecified) -1.95%, COc1ccccc1NC(=O)c1ncn(-c2ccccc2)n1 64.7%, COc1ccc(Cn2ccc3nc(C)c(C(=O)N4CCN(c5ccc(F)cc5)CC4)cc3c2=O)cc1 -7.65%, Cc1ccc(Sc2c(C)nn(C(C)(C)C)c2OC(=O)CC(C)C)cc1 -19.3%, Cc1c(C(=O)OC2CCC(C)CC2)[nH]c2c1C(=O)CC(c1ccc(F)cc1)C2 (stereo unspecified) -26.5%, Cc1cccc2c(=O)cc(CSc3ccccc3NC(=O)c3cccc(Cl)c3)[nH]c12 -1.73%, Cc1ccc2nc(CSc3nnc(NC(=O)C(C)C)s3)cc(=O)n2c1 -2.04%, CCOc1ccc(-c2cc3c(=O)n(Cc4nc(-c5ccc(OCC)c(OC)c5)oc4C)ccn3n2)cc1Cl 5.29%, CC(C)(C)c1[nH]cnc1C=c1[nH]c(=O)c(=Cc2ccccc2)[nH]c1=O -30.4% [at 116 µM], Cc1cccc(OCC(=O)Nc2c(C(=O)Nc3ccc(F)cc3)oc3ccccc23)c1 7.43%, Cc1cccc(N2C(=O)CSC23C(=O)N(C)c2ccccc23)c1 (stereo unspecified) -20.5%, CCc1ccc(-n2nc(C)c3c(C)cc(=O)n(CC(=O)Nc4cc(Cl)ccc4OC)c32)cc1 -18%, CCOc1ccc(OCC)c(NC(=O)c2cnn(-c3ccc(F)cc3)c2-n2cccc2)c1 -33.3%, COc1cc(NC(=O)NCCc2c(C)nn(C)c2C)cc(OC)c1OC -15.8%, CCCN1CCN(c2nnc(-n3cccc3C(=O)Nc3ccccc3C(F)(F)F)s2)CC1 -17.1%, CC(C)(C)OC(=O)N1CCC(c2c(C(=O)N3CCN(c4cccc(Cl)c4)CC3)cnn2-c2cccc(Cl)c2)CC1 -2.64%, CCc1ccc(NC(=O)C2CCCN(S(=O)(=O)c3ccc4[nH]c(=O)ccc4c3)C2)cc1 (stereo unspecified) -27.8%, CCOC(=O)C1CCN(C(=O)Cn2nc(C)n3c(cc4c(OC)cccc43)c2=O)CC1 -19.9%, COc1cccc(C(c2sc3nc(-c4ccco4)nn3c2O)N2CCC(C)CC2)c1 (stereo unspecified) -15.2%, O=C(CSc1ccnc(=O)[nH]1)NCc1ccc(F)cc1 -5.77%, COC(=O)c1sccc1S(=O)(=O)N1CCN(c2cccc(C)c2)C(C)C1 (stereo unspecified) -15%, O=C(NCc1ccccc1)C1CCN(c2ncnc3c2nc2n3CCCCC2)CC1 1.14%, CCOC(=O)c1cccc(NC(=O)C2COc3ccc(OC)cc3C2)c1 (stereo unspecified) -31%, Cc1ccc(CCNC(=O)C2CC(=O)N(CCc3ccc(C)cc3)C2)cc1 (stereo unspecified) -17.4%, N=c1ccn2c(n1)O[C@H]1[C@@H](O)[C@@H](CO)O[C@H]12 7%, CCCCc1ccc(NC(=O)Cn2cnc3c(oc4ccccc43)c2=O)cc1 6.15%, O=C(NCc1ccc(Cl)cc1)c1ccc2c(c1)nnn2C1CCCC1 10.3%, COc1ccc(C)cc1NC(=O)CSc1nc(=O)n(Cc2ccco2)c2c1CCC2 -23.6%, Cc1ccc(-n2cc(-c3ccccc3)c3c(N4CCC(C)CC4)ncnc32)cc1Cl -12.6%, Cc1nc2nc(NCc3ccccc3Cl)[nH]n2c(=O)c1Cc1ccccc1 -23.8%, CCOC(=O)c1cnc2c(C)cc(C)cc2c1NCCN1CCOCC1 -30.5%, O=C(Nc1ccccc1OCc1cc(=O)n2ccccc2n1)Nc1ccccc1C(F)(F)F 10.4%, CCCSC1=NC2(CCN(C(=O)NC3CCCCC3)CC2)N=C1c1ccc(C)cc1 -11.5%, Cc1ccc(C)c(OCc2nc3ccccc3n2C)c1 19.9%, Cc1ccccc1NC(=O)CSc1nc2c(oc3ccccc32)c(=O)n1Cc1ccco1 -11%, Cc1cccc(OC(=O)CSc2nnc(-c3cccs3)o2)c1C 0.299%, Cc1ccc(-n2ncc(C(=O)N3CCN(c4ccccc4F)CC3)c2C2CCN(C(=O)OC(C)(C)C)CC2)cc1C 3.59%, CSc1ncc(Cl)c(C(=O)Nc2c(C(=O)c3ccc(Cl)cc3)oc3ccccc23)n1 -7.71%
